The campaign covered roughly 310,000 compounds. About 14,000 (4.5%) showed an effect of 50% or more. The effect is printed as a negative number. The list shows a part of the results.
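Further: peak tail current of the secondary pulse compared with the same well before compound.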

Sequence of human ether-à-go-go-related gene (hERG) potassium channel (Q12809 whole entry, looked up): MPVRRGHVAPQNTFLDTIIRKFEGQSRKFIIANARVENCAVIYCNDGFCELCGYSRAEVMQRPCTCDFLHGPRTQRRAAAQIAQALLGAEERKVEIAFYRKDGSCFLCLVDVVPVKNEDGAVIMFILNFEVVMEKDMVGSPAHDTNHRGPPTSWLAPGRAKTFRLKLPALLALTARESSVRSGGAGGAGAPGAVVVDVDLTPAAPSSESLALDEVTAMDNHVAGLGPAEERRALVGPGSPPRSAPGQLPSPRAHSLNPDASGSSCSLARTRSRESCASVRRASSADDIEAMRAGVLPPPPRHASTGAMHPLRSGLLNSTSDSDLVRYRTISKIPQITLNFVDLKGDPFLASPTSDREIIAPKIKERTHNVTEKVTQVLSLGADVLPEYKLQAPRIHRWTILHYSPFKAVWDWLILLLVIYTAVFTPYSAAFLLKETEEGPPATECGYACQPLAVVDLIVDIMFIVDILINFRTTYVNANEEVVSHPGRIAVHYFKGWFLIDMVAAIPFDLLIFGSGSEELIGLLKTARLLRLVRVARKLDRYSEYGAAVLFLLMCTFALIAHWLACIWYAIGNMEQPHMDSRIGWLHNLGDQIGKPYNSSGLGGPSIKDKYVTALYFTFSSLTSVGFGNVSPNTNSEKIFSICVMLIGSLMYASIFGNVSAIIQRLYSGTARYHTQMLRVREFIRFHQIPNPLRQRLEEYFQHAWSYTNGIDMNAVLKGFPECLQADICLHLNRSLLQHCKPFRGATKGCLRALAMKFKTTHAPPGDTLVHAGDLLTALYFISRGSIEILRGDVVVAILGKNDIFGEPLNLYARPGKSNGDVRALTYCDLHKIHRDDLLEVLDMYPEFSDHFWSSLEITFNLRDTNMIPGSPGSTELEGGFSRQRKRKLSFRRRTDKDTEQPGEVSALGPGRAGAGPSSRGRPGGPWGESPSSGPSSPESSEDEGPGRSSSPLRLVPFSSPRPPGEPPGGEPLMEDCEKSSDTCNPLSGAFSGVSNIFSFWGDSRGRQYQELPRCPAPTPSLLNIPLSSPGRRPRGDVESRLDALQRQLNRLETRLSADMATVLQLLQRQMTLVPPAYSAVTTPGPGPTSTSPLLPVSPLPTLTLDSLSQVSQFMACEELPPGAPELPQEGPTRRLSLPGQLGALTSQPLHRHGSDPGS

The test concerns the target human ether-à-go-go-related gene (hERG) potassium channel (human, UniProt Q12809). The test can be described thus: primary screen, population patch clamp on CHO cells stably expressing hERG.
As for `CC(O)C(=O)O.Cc1ccc(CN(CC(O)COc2cccc3[nH]cc(C)c23)C(C)(C)C)cc1` (centres unmarked), the “hERG current change (%, negative = inhibition) at 10uM” value is -60.8%.
Consider `CC(C)(C)NC(=S)N/N=C/c1cc(Br)c(O)c(Br)c1`, for which the “hERG current change (%, negative = inhibition) at 10uM” value is 29.8%.
The same measure for `Cc1ccc[n+](CC(=O)c2ccc(-c3ccccc3)cc2)c1.[Br-]`: -52.4%; for `Cn1nc(CC(=O)NCc2cccc3ccccc23)c2ccccc2c1=O`: -5.46%; for `CN(/N=C/c1cccnc1)c1cnc2ccccc2n1`: -14.4%.
Next, `COCCCNC(=O)CN(c1cc(OC)ccc1OC)S(=O)(=O)c1ccccc1`: 7.54%; `CN(C(=O)c1nn(C)c2c1CSc1ccccc1-2)c1ccccc1Cl`: 3.14%.
The same measure for `C(=N\Nc1nc(Nc2ccccc2)nc(Nc2ccccc2)n1)/c1ccncc1`: 15.7%; for `Cc1ccc(S(=O)(=O)N(C)C)cc1NC(=O)CN1C(=O)NC2(CCCCCC2)C1=O`: -4.93%; for `O=C(CCc1[nH]c2ccccc2c1Sc1ccccc1)N(CCO)CCO`: -12%.
As for `COc1ccccc1NC(=O)c1csc(-n2nc(C)cc2C(F)(F)F)n1`, the “hERG current change (%, negative = inhibition) at 10uM” value was -4.7%.
Next, `COc1ccc(OC(=O)CCCN2C(=O)c3ccccc3C2=O)cc1`: -6.92%; `O=C(O)CC1SC(N/N=C/c2ccc(Br)cc2)NC1=O` (centres unmarked): 6.6%.
In the case of `CC(=O)c1cc(C#N)c(N2CCOCC2)nc1C`, the “hERG current change (%, negative = inhibition) at 10uM” value is recorded as 8.69%.
The same measure for `Cc1ccc(N(C(=O)C2COc3ccccc3O2)C(C(=O)NC2CCCCC2)c2cn(C)nc2C)cc1` (centres unmarked): 0.406%.
The same measure for `COCc1[nH]nc2c1C(c1ccc(OC)c(OC)c1)C(C#N)=C(N)O2` (centres unmarked): 12.2%.
For the compound `COc1ccc(Br)cc1CN(C)CC(=O)NCCc1ccccc1.O=C(O)C(=O)O`, the “hERG current change (%, negative = inhibition) at 10uM” value is -14.7%.
`NC(=O)CC1(CC(=O)O)CCCCC1`: the “hERG current change (%, negative = inhibition) at 10uM” value was 10.1%.
With `COc1ccc(C(=O)/C=C2\NCC3c4ccccc4CCN3C2=O)cc1` (centres unmarked), the “hERG current change (%, negative = inhibition) at 10uM” value is listed as -18.7%.
Next, `CCN(CC)CCN(C(=O)c1ccc2ccccc2c1)c1nc2ccc(OC)cc2s1.Cl`: -30%; `COCCn1c(SCC(=O)c2c(-c3ccccc3)n(C)c3ccccc23)nnc1-c1ccncc1`: -22.4%.
Turning to `CC(C)COC(=O)N1CCCC1C(=O)O` (centres unmarked), the “hERG current change (%, negative = inhibition) at 10uM” value is on record as -1.68%.
The same measure for `O=C(CN1CCOCC1)NN=C(c1ccccc1)c1ccccc1`: 20.8%; for `N#Cc1ncccc1CCc1cccc(Cl)c1`: -11.1%; for `Clc1ccccc1NC1=NCCCS1`: 11.7%.
On to `COc1ccc(CCNC(=O)Cc2ccc(C)cc2)cc1OC`, for which the “hERG current change (%, negative = inhibition) at 10uM” value turned out to be 16.4%.
The same measure for `Cc1ccc(C)n1C1CCS(=O)(=O)C1` (centres unmarked): 10.2%; for `Cc1cccc(C)c1NC(=O)C(=O)NCCc1c[nH]c2ccccc12`: 11.1%.
Consider `Cc1cc2nc3c(nc2cc1C)C(O)=C3O`, for which the “hERG current change (%, negative = inhibition) at 10uM” value came to 15%.
Take `CCS(=O)(=O)CCSc1nc2ccccc2s1`: the “hERG current change (%, negative = inhibition) at 10uM” value is -1.98%.
Next, `Cc1cc(C)n2nc(C(=O)Nc3nnc(C4CC4)s3)nc2n1`: 15.1%; `CCOc1cc(CN2CCCCCC2)ccc1OC`: -3.28%; `Cc1ccc(S(=O)(=O)N(C)c2cc(S(N)(=O)=O)c(C)cc2C)cc1`: -11.6%.
Regarding `O=C(Cc1ccc(F)cc1)N/N=C/c1ccc2c(c1)OCO2`, the “hERG current change (%, negative = inhibition) at 10uM” value was 20.4%.
For `O=[N+]([O-])c1ccccc1/C=N/N1CCN(c2ccc(Cl)cc2)CC1`, the “hERG current change (%, negative = inhibition) at 10uM” value is -10.9%.
Next, `O=C(c1cccc(N2C(=O)c3ccccc3C2=O)c1)N1CCCC(C(F)(F)F)C1` (centres unmarked): -53.9%; `COc1ccc(-c2nc(-c3cccs3)c(-c3cccs3)[nH]2)cc1O`: -7.87%.
For `O=C1CC(N2CCN(c3ccccc3)CC2)C(=O)N1c1cccc(Cl)c1` (centres unmarked), the “hERG current change (%, negative = inhibition) at 10uM” value is 8.61%.
For the compound `COc1ccccc1-c1cc(C(F)(F)F)nc(S(=O)(=O)CCCC(=O)NC(C)C)n1`, the “hERG current change (%, negative = inhibition) at 10uM” value worked out at 1.53%.
Next, `CCOCCCNC(=O)C(c1ccccc1)N(Cc1cccs1)C(=O)c1ccccc1O` (centres unmarked): 14.3%; `O=C(Nc1ccc(-c2nc3ccccc3s2)cc1)c1cc(-n2cnnc2)ccc1Cl`: -0.0347%.
The same measure for `O=C(COc1ccccc1F)Nc1cc(S(=O)(=O)Nc2cccc(Cl)c2)ccc1O`: 21.7%.
The same measure for `COc1cc(CCC(=O)OCC(=O)Nc2ccc(C)cc2Cl)cc(OC)c1OC`: 11.8%.
On to `O=C(CN(c1ccc(Cl)c(C(F)(F)F)c1)S(=O)(=O)c1ccccc1)N/N=C/c1cccc2c1OCCO2`, for which the “hERG current change (%, negative = inhibition) at 10uM” value is on record as 24.1%.
The same measure for `COc1cc(C(=O)Nc2ccc(C)cc2)c2ccccc2n1`: 12.8%.
With `CN1C(=O)CC(c2ccco2)Sc2ccccc21` (centres unmarked), the “hERG current change (%, negative = inhibition) at 10uM” value was -17.1%.
Next, `COc1ccc(NC(=O)C2CCN(S(=O)(=O)c3cn(C)nc3C)CC2)cc1`: -3.97%.
As to `COc1ccc(-c2nc3c(-c4ccc(Cl)cc4)cnn3cc2C)cc1F`, the “hERG current change (%, negative = inhibition) at 10uM” value is 26.8%.
Next, `CSc1ccc(C(=O)C2CCCN(S(=O)(=O)c3c(C)noc3C)C2)cc1` (centres unmarked): 16.6%.
The same measure for `Cc1cc(C)c2[nH]c(=O)c(CN(Cc3ccco3)C(=S)NCC3CCCO3)cc2c1` (centres unmarked): 1.6%.
The same measure for `O=C(COC(=O)COc1ccc2ccccc2c1)Nc1cc(C(F)(F)F)ccc1N1CCOCC1`: 7.69%; for `O=C(NCc1ccc2c(c1)OCO2)NC12CC3CC(CC(C3)C1)C2`: 14.8%.
`COc1ccc(C(=O)COC(=O)c2cc(S(=O)(=O)NCc3ccccc3)ccc2O)cc1`: the “hERG current change (%, negative = inhibition) at 10uM” value came to 2.47%.
Next, `COCCOC(=O)C1=C(C)NC(=O)NC1c1c(Cl)nc2ccccn2c1=O` (centres unmarked): 2.73%; `CC(C)(C)NS(=O)(=O)c1ccc(NC(=S)NC(=O)C2CC2)cc1`: 15.6%.
Next, `Nc1ccc(C2(c3ccc(N)cc3)OC(=O)c3ccccc32)cc1`: -6.43%.
Consider `O=C(NC1CCCC1)C(c1ccc(F)cc1)N(C(=O)c1csnn1)C1CC1` (centres unmarked), for which the “hERG current change (%, negative = inhibition) at 10uM” value was -8.2%.
The same measure for `O=C1NCCN/C1=C\C(=O)c1cccc(Br)c1`: -11.9%; for `COc1ccccc1NC(=S)NNC(=O)c1nn(C)c(C)c1Cl`: 7.8%.
The same measure for `Cc1cc(C[n+]2ncsc2N)c2ncccc2c1.[Br-]`: -33.8%; for `CCN(CC(=O)Nc1c(F)cccc1F)C(=O)CCCc1c[nH]c2ccccc12`: 9.04%; for `O=C(COC(=O)[C@H](Cc1ccccc1)NC(=O)c1cccs1)NC1CCCCC1`: -13.1%.
Next, `CCOC(=O)c1ccc(NC(=O)[C@@H](NC(N)=O)C(C)C)cc1`: -2.24%.
In the case of `CC(C)(C)c1ccc(-c2nnc(NC(=O)c3ccccc3)s2)cc1`, the “hERG current change (%, negative = inhibition) at 10uM” value is -13.6%.
The same measure for `O=C(CCCSc1nnnn1-c1cccc2ccccc12)c1ccc(F)cc1`: -7.29%; for `NS(=O)(=O)c1ccc(CNS(=O)(=O)Cc2ccc(Cl)cc2)cc1`: 8.77%; for `O=[N+]([O-])c1ccc(N2CCNCC2)cc1Sc1ccccn1`: 30.3%.
For the compound `COc1ccc2c(c1)N(C(=O)CSc1n[nH]c(C)n1)C(C)(C)C=C2C`, the “hERG current change (%, negative = inhibition) at 10uM” value is -9.81%.
`O=C(CN1CCN(c2cccc(Cl)c2)CC1)Nc1ccc(S(=O)(=O)N2CCOCC2)cc1`: the “hERG current change (%, negative = inhibition) at 10uM” value turned out to be 6.01%.
Take `CCOc1ccc(NC(=S)NC2CC3CCC(C2)N3Cc2ccco2)cc1` (centres unmarked): the “hERG current change (%, negative = inhibition) at 10uM” value is given as -25.6%.
Regarding `Cn1nc(C(C)(C)C)cc1C(=O)NN1CCOCC1`, the “hERG current change (%, negative = inhibition) at 10uM” value is 18%.
Next, `CCSc1nnc(NC(=O)NC(C)(C(F)(F)F)C(F)(F)F)s1`: 4.5%.
The same measure for `CC(=O)c1cccc(NC(=S)NC(=O)c2ccccc2)c1`: 1.98%; for `COc1ccc(Nc2cc(C)nc(-n3nc(C)cc3C)n2)cc1`: -16.7%.
On to `COc1cc(CNCCC2CCOC(C)(C)C2)ccc1O.Cl` (centres unmarked), for which the “hERG current change (%, negative = inhibition) at 10uM” value is 5.47%.
The same measure for `COc1ccc(N2CCN(C(=O)C(=O)c3c(C)[nH]c4ccccc34)CC2)cc1`: -14.1%; for `COc1ccccc1NC(=O)NNC(=O)c1ccc2c(c1)NC(=O)C(C)(C)O2`: 17.8%; for `COc1ccccc1NC(=O)NC(N)=O`: 2.19%.
The same measure for `COc1ccc(N2CCN(Cc3cc4c(cc3O)CCC4)CC2)cc1`: -12.4%; for `CC1CCN(CC(O)COc2ccc(C(=O)c3ccccc3)cc2)CC1` (centres unmarked): -67.4%.
Next, `CN1C(=O)C(Cc2ccsc2)C(=O)N(C)C1=O`: 4.98%.
Take `CCO[C@H]1OC(C(=O)N2CCCCCCC2)=C[C@@H](c2csc3ccccc23)[C@@H]1CCCO`: the “hERG current change (%, negative = inhibition) at 10uM” value was -23.3%.
Next, `NC(N)=NS(=O)(=O)c1ccc(NC(=S)NC(=O)/C=C/c2ccc(F)cc2)cc1`: 10.9%.
Next, `COc1ccc(/C(O)=C2/C(=O)C(=O)N(CCN(C)C)C2c2ccc(C)cc2)cc1Cl` (centres unmarked): 5.16%; `CC(C)N1CCc2c(sc(NC(=O)c3ccco3)c2C(N)=O)C1.Cl`: -6.82%; `CCn1nnnc1SCC(=O)Nc1cc(C)on1`: 1.97%.
Take `O=[N+]([O-])c1cc(S(=O)(=O)N2CCCCC2)ccc1NCCCN1CCOCC1`: the “hERG current change (%, negative = inhibition) at 10uM” value is -47.8%.
The same measure for `Cc1ccc2c(c1)c1c(n2C)-c2[nH]ncc2CC1`: 4.45%.
Next, `Cc1nc(N2CCN(c3ccccn3)CC2)c2c(C)c(C(=O)Nc3ccccc3F)sc2n1`: -55.3%.

For the origin of these results see publication PMC4336329 (PLoS ONE, 2015).
